Results are given in words; binding and its absence hold for the method and conditions named. Some entries that bind do so weakly or less than the wild type.
Experiments:
OCT4 [1] = target: OCT4 (UniProt P20263); experiment: native gel or EMSA; ternary OCT4/SOX2/DNA supershift on the P32-labeled UTF1 double-stranded DNA probe; 2-3 ug SOX2 lysate with equal amounts of OCT4 lysate, on ice for 1 hour, 6% native polyacrylamide gel
OCT4 [2] = target: OCT4 (UniProt P20263); experiment: native gel or EMSA; ternary OCT4/SOX2/DNA supershift on the P32-labeled FGF4 double-stranded DNA probe; 2-3 ug SOX2 lysate with equal amounts of OCT4 lysate, on ice for 1 hour, 6% native polyacrylamide gel
OCT4 [3] = target: OCT4 (UniProt P20263); experiment: native gel or EMSA; ternary OCT4/SOX2/DNA supershift on the P32-labeled HOXB1 double-stranded DNA probe; 2-3 ug SOX2 lysate with equal amounts of OCT4 lysate, on ice for 1 hour, 6% native polyacrylamide gel

By UniProt entry, the sequences of proteins in these tests, tags left out. Where a name states a change or a piece, a line headed by the entry shows the natural chain unless it says otherwise.
UniProt P20263: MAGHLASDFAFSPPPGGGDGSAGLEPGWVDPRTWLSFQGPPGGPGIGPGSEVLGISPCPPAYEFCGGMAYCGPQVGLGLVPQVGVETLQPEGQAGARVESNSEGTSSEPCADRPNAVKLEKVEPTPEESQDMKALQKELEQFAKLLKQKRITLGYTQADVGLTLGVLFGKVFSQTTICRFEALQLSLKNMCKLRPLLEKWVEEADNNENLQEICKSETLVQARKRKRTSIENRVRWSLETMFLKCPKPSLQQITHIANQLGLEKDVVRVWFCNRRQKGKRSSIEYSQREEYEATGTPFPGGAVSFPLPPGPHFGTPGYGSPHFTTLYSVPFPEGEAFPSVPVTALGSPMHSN
UniProt P48431: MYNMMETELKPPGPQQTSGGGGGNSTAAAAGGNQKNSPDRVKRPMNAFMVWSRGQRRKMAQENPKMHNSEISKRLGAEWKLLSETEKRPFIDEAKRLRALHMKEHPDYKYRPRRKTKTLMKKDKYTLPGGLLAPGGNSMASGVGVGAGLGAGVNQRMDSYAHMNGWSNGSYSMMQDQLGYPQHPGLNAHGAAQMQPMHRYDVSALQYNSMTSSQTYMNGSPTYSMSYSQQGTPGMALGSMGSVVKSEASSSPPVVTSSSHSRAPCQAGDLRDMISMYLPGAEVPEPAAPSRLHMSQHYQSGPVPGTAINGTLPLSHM

Substance	binding (OCT4 [1])	binding (OCT4 [2])	binding (OCT4 [3])
SOX2 K95E R98E mutant (from UniProt P48431 1-317)	no binding (condition: on the Utf1 DNA probe)	binds	no binding (condition: on the Hoxb1 DNA probe)
SOX2 R98E M102E mutant (from UniProt P48431 1-317)	no binding (condition: on the Utf1 DNA probe)	binds	binds
SOX2 R113E mutant (from UniProt P48431 1-317)	binds	binds weakly	binds
wild-type SOX2 (from UniProt P48431 1-317)	–	–	binds

Reference: paper PMC4551974
